Assay results published in the supplement of paper PMC10338343.
± gives the standard deviation. The list shows a part of the results, in another mix than the full data.

Tested on: MIWI (PIWIL1) piRISC loaded with L1MC piRNA (30 nt)
Assay: pre-steady-state target cleavage rate (min^-1); MIWI and MILI are mouse PIWI proteins and EfPiwi is from a freshwater sponge; tags in brackets are library labels; higher = faster piRNA-guided slicing of the target
Conditions: guide: L1MC piRNA 5'p-UAACUAAAUACUAUGCAAGCUGUAGGUCCU
Procedure, shortened: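 For Cleave-'n-Seq, a transcribed, DNA-blocked target RNA library […] met 1 nM active affinity-purified piRISC with one synthetic guide at 33 °C for 0–8 or 0–960 min in HEPES–potassium acetate buffer, with or without 500 nM GTSF1 partner protein. Uncleaved targets were sequenced and normalised to depth and weakly complementary targets, with three trials pooled and k3 capped at 0.0001 min^-1. A burst-and-steady-state fit supplied the pre-steady-state cleavage rate.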

[1] = auxiliary factor: 500 nM mouse GTSF1
[2] = auxiliary factor: none (no GTSF1)
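Further: 1 nM active piRISC with 0.1 nM target library at 33 °C single turnover.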

| Sequence | pre-steady-state target cleavage rate [1] | pre-steady-state target cleavage rate [2] |
| --- | --- | --- |
| UCGACCAUGAGCUUGCAUAGUAUUUAGAAA | 0.387 ± 0.046 | 0.00687 ± 0.0026 |
| UCCUGGAUGAGCUAGCAUAGUAUUUAGAUA | 0.194 ± 0.025 | 0.00381 ± 0.0027 |
| AGGACCAACAGCUUGCAUACUAUUUAGUUA | 0.371 ± 0.018 | 0.0379 ± 0.0075 |
| UCCUGGAUGUGCAUGCAUAGUAUUUUGUUA | 0.0233 ± 0.0055 | 0.00456 ± 0.0022 |
| UCGACCAACAGCUUGCAUAGUAAUUAGUUA | 0.972 ± 0.041 | 0.0305 ± 0.0074 |
| UCCUGCUACAGGUUGCAUAGUAUUAAGUUA | 0.628 ± 0.084 | 0.0103 ± 0.0031 |
| UCCUGCUACACCUUGCAUAGUAAUUAGUUA | 0.434 ± 0.069 | 0.0145 ± 0.004 |
| UCCUGGAACAGCUUGCAUUGUAUUUAGUAA | 0.443 ± 0.033 | 0.0205 ± 0.0062 |
| UCCACCAUCAGCUUGCAUAGUAUUUAGAAA | 0.375 ± 0.037 | 0.00627 ± 0.002 |
| UCCUGGAUGAGCUUGCAUAGUAUUUACGUUA | 0.515 ± 0.056 | 0.0216 ± 0.0057 |
| UCCUGGAUCAGCUUGCAUAGUAUUAAGAAA | 0.134 ± 0.025 | 0.00372 ± 0.0026 |
| UCCUGCUUCAGCUUGCAUAGUAUUUACUUA | 0.346 ± 0.036 | 0.03 ± 0.0065 |
| UCCACCUAGAGCUUGGAUAGUAUUUAGUUA | 0.716 ± 0.045 | 0.0332 ± 0.0057 |
| UCCUGGUACAGCAUGCUUAGUAUUUAGUUA | 0.609 ± 0.047 | 0.0178 ± 0.0046 |
| UCCUGGAUGAGCUUGCAAAGUAUUUAGAAA | 0.188 ± 0.033 | 0.00561 ± 0.0024 |
| UGGACCUACAGCUUGCAUAGUAAUUACUUA | 0.123 ± 0.023 | 0.0123 ± 0.0032 |
| UCCUGGUACAGCAUGCAUAGAAUUUAGUUA | 0.517 ± 0.11 | 0.00617 ± 0.0027 |
| UCCUGGAAGAGCUUGCAUAGUAAUUAGUUA | 0.507 ± 0.046 | 0.0151 ± 0.0056 |
| UCCACCCUACAGCUUGCAUAGUAUUUAGUUA | 0.831 ± 0.055 | 0.0575 ± 0.012 |
| UCCUGCUACAGCUUGCUUAGUAAUUAGUUA | 0.512 ± 0.041 | 0.0104 ± 0.0033 |
